Results on 57 molecules are retold here after PubChem BioAssay AID463173 (ICCB-Longwood Screening Facility, Harvard Medical School, 2010).

Among all 52,000 compounds or so, about 4,300 (8.3%) were called active. Cut-off read from the data, not from the text of the source: active = survival mostly below about 52% (no sharp cut-off); inactive = mostly above about 56%. Some of the results follow.

In this test the test system is DeltatarO mutant. As to the kind of experiment: S. aureus survival, RN4220 and DeltatarO strains – OD600, teichoic acid synthesis inhibitors, primary screen (AID 463173). Particulars: S. aureus RN4220 wild type/DeltatarO growth, OD600, 18 h, stronger effect = lower value, screened at 18.75 µg/mL (by protocol).
Turning to `Cc1ccc(CNC(=O)Cn2c(=O)cc(C(F)(F)F)c3c(C)nn(C)c32)cc1`, the survival is inactive: 71%.

Regarding `O=C(O)CCC(=O)Nc1ccc(-c2ccccc2)cc1`, the survival was inactive: 62%.

Regarding `CCOc1ccc(-c2nc(Cn3c(=O)cc(-c4ccccc4)c4c(C)nn(C)c43)c(C)o2)cc1`, the survival is inactive: 128%.

On to `Cc1ccc(CNC(=O)C2CCN(S(=O)(=O)c3c(C)noc3/C=C/c3cccs3)CC2)cc1`, for which the survival was inactive: 77%.

Regarding `CCCCOc1ccc(-c2nnc(-c3ccco3)n2-c2ccccc2)cc1`, the survival was inactive: 78%.

Consider `CCCn1c(SCc2nc(-c3ccc(OC)c(OC)c3)no2)nnc1-c1ccccc1`, for which the survival is inactive: 81%.

Consider `Cc1ccc(NC(=O)c2cnn3c(C(F)F)cc(-c4ccccc4)nc23)cc1F`, for which the survival was inactive: 66%.

For `CC1CCN(C(c2ccccc2)c2nnnn2Cc2ccc(F)cc2)CC1` (configuration not stated), the survival is inactive: 111%.

Consider `O=C(NCCc1ccccc1)C1CCC(CNS(=O)(=O)c2ccccc2)CC1` (configuration not stated), for which the survival is inactive: 91%.

Regarding `CC(C)Oc1ccc(C(=O)N2CCN(CCc3ccccn3)CC2)cc1`, the survival is inactive: 68%.

As to `CCCc1nc(SC)ncc1C(=O)N1CCN(c2ccc(Cl)cc2)CC1`, the survival is inactive: 75%.

For the molecule `CCCn1c(SCC(N)=O)nnc1C(C)C`, the survival is inactive: 96%.

Take `O=c1c2oc3ccccc3c2n(Cc2ccccc2Cl)c(=O)n1Cc1ccco1`: the survival is inactive: 73%.

With `O=C(Nc1ccc2nc(SCC(=O)N3CCc4ccccc43)sc2c1)c1ccc(F)cc1`, the survival was inactive: 73%.

As for `COc1ccc(CN(Cc2ccco2)c2cnc(S(C)(=O)=O)nc2C(=O)Nc2ccc(C)c(Cl)c2)cc1`, the survival was inactive: 47%.

`COc1ccc(NC(=O)C(=O)NCC(c2cccnc2)N2CCc3ccccc32)cc1OC` (configuration not stated): the survival was inactive: 61%.

Turning to `COc1cccc(S(=O)(=O)N2CCN(Cc3ccc4c(c3)OCO4)CC2)c1`, the survival is inactive: 75%.

`CCSc1nnc2c3cc(Br)ccc3n(C)c2n1`: the survival is inactive: 93%.

Regarding `CN(Cc1ccccc1)S(=O)(=O)c1ccc(-c2cnc(C3CC3)o2)cc1`, the survival is inactive: 76%.

As for `Cc1c(C2=CCN(S(=O)(=O)c3cccc(Cl)c3)CC2)c2ccccc2n1CC(=O)N1CCCC1`, the survival was inactive: 75%.

For `Cc1ccc(NC(=O)C(C)Sc2nc(=O)cc(N)n2-c2cccc(C)c2)cc1` (configuration not stated), the survival was inactive: 59%.

Turning to `CC(NCc1ccc2c(c1)OCO2)C(=O)NC1CCCCC1` (configuration not stated), the survival is inactive: 72%.

Regarding `Cc1cccc(N2CCN(C(=O)CN3CCSc4ccccc43)CC2C)c1` (configuration not stated), the survival was inactive: 80%.

For the molecule `CCc1ccc(-c2nc3c(c(SCc4ccccc4F)n2)Cc2c(CO)cnc(C)c2O3)cc1`, the survival is inactive: 85%.

On to `CC1CCc2nn(CC(=O)Nc3ccccc3Cl)cc2C1` (configuration not stated), for which the survival was inactive: 77%.

As for `COc1ccc(OC)c(CNC(=O)c2ccc(-c3nc(CSc4ccccc4)c(C)o3)cc2)c1`, the survival is inactive: 120%.

On to `CCOc1ccc(NC(=O)NCCc2c(C)nn(C)c2C)cc1`, for which the survival was inactive: 76%.

Regarding `COc1ccc(NC(=O)CC2C(=O)N(c3ccc(F)cc3)C(=O)N2Cc2ccco2)cc1` (configuration not stated), the survival is inactive: 92%.

For the molecule `Cc1ccccc1CN1C(=O)c2ccccc2Sc2ccc(C(=O)NC(C)c3ccccc3)cc21` (configuration not stated), the survival was inactive: 91%.

As to `CCN1CCOC(=O)C1CC(=O)Nc1cc(C)cc(C)c1` (configuration not stated), the survival is inactive: 142%.

Consider `Cc1ccc(N2C(=O)CCSC23C(=O)N(Cc2ccccc2)c2ccccc23)cc1F` (configuration not stated), for which the survival is inactive: 89%.

For `Cc1cc(C)cc(NS(=O)(=O)c2ccc3[nH]cc(C(=O)N(C)Cc4ccccc4)c(=O)c3c2)c1`, the survival was inactive: 102%.

With `Cc1ccc(CNC(=O)Cn2c(=O)n(-c3ccc(Cl)cc3)c(=O)c3c(C)c(C)sc32)cc1`, the survival was inactive: 78%.

Turning to `COc1ccc(OC)c(/C=C(/C#N)c2nc(-c3ccc(-c4ccccc4)cc3)cs2)c1`, the survival is inactive: 52%.

With `O=C(NCc1ccccc1)c1nn(-c2ccccc2)nc1CO`, the survival was inactive: 108%.

In the case of `CCOc1ccccc1NC(=O)CN1C(=O)CC(c2ccc(OC)c(OC)c2)Sc2ccccc21` (configuration not stated), the survival was inactive: 76%.

`Cc1ccc(-c2nnc(C3CCN(S(=O)(=O)c4ccc(C)c(C)c4)CC3)o2)cc1`: the survival was inactive: 103%.

As for `Cn1c(-n2cccc2)c(-c2c(-c3ccccc3)[nH]c3c2c(=O)n(C)c(=O)n3C)c(=O)n(C)c1=O`, the survival was inactive: 102%.

In the case of `CCCCOC(=O)c1ccc(NC(=O)CSc2nc3c(c(=O)[nH]2)CCCC3)cc1`, the survival is inactive: 63%.

In the case of `COc1ccccc1NC(=O)CN1CCCN(S(=O)(=O)c2ccc(Br)cc2)CC1`, the survival is inactive: 66%.

Take `Cc1nc2ccccn2c(=O)c1NC(=O)c1ccc(C(F)(F)F)cc1`: the survival is active: 0%.

On to `COc1ccc(/C=C(\NC(=O)c2ccccc2)C(N)=O)cc1`, for which the survival was inactive: 79%.

Take `COc1ccc(NC(=O)c2cccn2-c2nnc(N3CCCCC3)s2)cc1Cl`: the survival was inactive: 69%.

Consider `CCOc1ccc(NC(=O)Cn2c(C)cc3ccccc3c2=O)cc1`, for which the survival was inactive: 69%.

As for `Cc1ccc(NC(=O)Cn2c(=O)n(CCCCC(=O)NCc3ccccc3Cl)c(=O)c3ccccc32)cc1C`, the survival was inactive: 75%.

For the molecule `N#CCCCSc1nnc(Cc2ccc3c(c2)OCO3)o1`, the survival was inactive: 97%.

`CCCCNc1nc2c(S(=O)(=O)c3ccc(C)c(C)c3)nnn2c2ccsc12`: the survival is inactive: 43%.

With `Cc1ccc(CSc2nc3c([nH]c4ccccc43)c(=O)n2C)cc1`, the survival is inactive: 94%.

As for `Cc1c(-c2nc(-c3ccccc3)no2)nnn1-c1cccc(C(F)(F)F)c1`, the survival was inactive: 80%.

For the molecule `COc1cc(Nc2ncc3c(n2)CCN(Cc2cc(Br)cs2)C3)cc(OC)c1`, the survival was inactive: 82%.

On to `COc1ccccc1CNC(=O)c1ccc2c(c1)nc(C)n2-c1ccccc1OC`, for which the survival is inactive: 77%.

For the molecule `COc1ccc(CNC(=O)CSc2nc3ccccc3nc2Cc2ccccc2OC)cc1`, the survival was inactive: 70%.

Turning to `COC(=O)c1sc(NC(=O)/C=C/c2ccc(OC)c(OC)c2)c(C(=O)OC)c1C`, the survival is active: 37%.

Consider `COc1cccc(C(=O)c2cn(CC(=O)NCc3ccccc3)c3nc(C)ccc3c2=O)c1`, for which the survival was inactive: 72%.

On to `COc1ccc(OCc2nc3c4c(-c5ccccc5)c(-c5ccccc5)oc4ncn3n2)cc1`, for which the survival was inactive: 58%.

In the case of `COC(=O)c1cc2c(cc1NC(=O)c1cnn(-c3ccc(C)cc3)c1-n1cccc1)OCO2`, the survival is inactive: 69%.

Regarding `CC(C)NC(=O)CCCN1C(=O)CCn2nc(-c3cccn3C)cc21`, the survival was inactive: 88%.
